The list shows a part of the results. The list includes weakly bound sequences.

Binding signal (RPM ratio (pull-down/input)) data for 18 sequences are collected here from publication PMC12820563.

For this assay, the target named is T1, MBP-FoxP3dN (UniProt Q99JB6).
T1 sequence: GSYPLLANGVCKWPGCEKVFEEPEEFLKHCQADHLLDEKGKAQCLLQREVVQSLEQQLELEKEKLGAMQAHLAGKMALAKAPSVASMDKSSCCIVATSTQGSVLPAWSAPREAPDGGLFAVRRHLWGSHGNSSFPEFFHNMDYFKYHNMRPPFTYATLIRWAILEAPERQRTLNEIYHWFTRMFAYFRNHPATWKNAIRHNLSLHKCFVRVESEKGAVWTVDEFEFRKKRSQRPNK
The experiment in a line: PD-seq (MBP pull-down with sequencing). The conditions noted are these: 20 mM Tris-HCl pH 7.5, 100 mM NaCl, 1.5 mM MgCl2, 0.4 uM protein, 0.1 uM dsDNA library, 30 min, room temperature, amylose pull-down; high values mean tight binding; double strand, one strand shown.
Take “GATGATTGTTCTCCCAGCTGATGAATTGCCCAAATCGAGTAAACAAATTTTCCTAATCTTTCTGTTCAAGCGCCATCTAC”: the binding signal (RPM ratio (pull-down/input)) came to 0.385.
For “GATGATTGTTCTCCCAGCTGATGAATTCTCCGCCTCGAGTAAACAAATTTTCCTAATCTTTCTGTTCAAGCGCCATCTAC” the value was 0.428; for “GATGATTGTTCTCCCAGCTGATGAATTCACTGCGTCGAGTAAACAAATTTTCCTAATCTTTCTGTTCAAGCGCCATCTAC”, 0.48; for “GATGATTGTTCTCCCAGCTGATGAATTTCCATACTCGAGTAAACAAATTTTCCTAATCTTTCTGTTCAAGCGCCATCTAC”, 0.355.
For “GATGATTGTTCTCCCAGCTGATGAATTACTTGCATCGAGTAAACAAATTTTCCTAATCTTTCTGTTCAAGCGCCATCTAC” the value was 1.25; for “GATGATTGTTCTCCCAGCTGATGAATTTTATTATTCGAGTAAACAAATTTTCCTAATCTTTCTGTTCAAGCGCCATCTAC”, 5.53; for “GATGATTGTTCTCCCAGCTGATGAATTGGTCGCATCGAGTAAACAAATTTTCCTAATCTTTCTGTTCAAGCGCCATCTAC”, 1.1.
For “GATGATTGTTCTCCCAGCTGATGAATTACTGGTGTCGAGTAAACAAATTTTCCTAATCTTTCTGTTCAAGCGCCATCTAC” the value was 0.479; for “GATGATTGTTCTCCCAGCTGATGAATTCAAGTCCTCGAGTAAACAAATTTTCCTAATCTTTCTGTTCAAGCGCCATCTAC”, 0.326.
For “GATGATTGTTCTCCCAGCTGATGAATTGGCACCCTCGAGTAAACAAATTTTCCTAATCTTTCTGTTCAAGCGCCATCTAC”, the binding signal (RPM ratio (pull-down/input)) came to 0.365.
In the case of “GATGATTGTTCTCCCAGCTGATGAATTCAAATGATCGAGTAAACAAATTTTCCTAATCTTTCTGTTCAAGCGCCATCTAC” it was 0.268; in that of “GATGATTGTTCTCCCAGCTGATGAATTAATCCGTTCGAGTAAACAAATTTTCCTAATCTTTCTGTTCAAGCGCCATCTAC”, 0.306; in that of “GATGATTGTTCTCCCAGCTGATGAATTCTGCAATTCGAGTAAACAAATTTTCCTAATCTTTCTGTTCAAGCGCCATCTAC”, 4.83.
In the case of “GATGATTGTTCTCCCAGCTGATGAATTCCCAATATCGAGTAAACAAATTTTCCTAATCTTTCTGTTCAAGCGCCATCTAC” it was 0.388; in that of “GATGATTGTTCTCCCAGCTGATGAATTTGCTCGGTCGAGTAAACAAATTTTCCTAATCTTTCTGTTCAAGCGCCATCTAC”, 0.383.
In the case of “GATGATTGTTCTCCCAGCTGATGAATTACGCCGGTCGAGTAAACAAATTTTCCTAATCTTTCTGTTCAAGCGCCATCTAC” it was 0.649.
Turning to “GATGATTGTTCTCCCAGCTGATGAATTGCATAATTCGAGTAAACAAATTTTCCTAATCTTTCTGTTCAAGCGCCATCTAC”, the binding signal (RPM ratio (pull-down/input)) was 0.889.
In the case of “GATGATTGTTCTCCCAGCTGATGAATTTCGGACATCGAGTAAACAAATTTTCCTAATCTTTCTGTTCAAGCGCCATCTAC” it was 0.402.
